According to PubChem BioAssay AID624417 (National Center for Advancing Translational Sciences (NCATS), 2012):
The whole screen tested about 410,000 compounds, of which about 6,400 (1.6%) were called active. The inconclusive results got no clear call from the source; some entries with a clear call stand among them for comparison. Calls come from the whole dose curve; as a rule, active = well fitted inhibition curve with a large enough effect; inconclusive = small, poorly fitted or top-dose-only effect; inactive = no such curve, though single readings can be large or run the other way. Potencies of inconclusive entries are left out as doubtful fits.

What follows are compounds tested against Glucagon-like peptide 1 receptor (Homo sapiens) (UniProt P43220) (assay: qHTS of GLP-1 Receptor Inverse Agonists (Inhibition Mode)). Conditions: HEK293 GLP-1R CRE-luciferase, luminescence, 24 h, GLP-1R form is constitutively active; series mostly up to 38.3 µM.
Summary of the method: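 HEK293 cells stably co-expressing a cAMP-responsive luciferase reporter and constitutively active GLP-1R were seeded, incubated 12 h, then exposed to compounds for 24 h at 37 C. Luminescence was read 12 min after detection reagent; inverse agonists lower signal.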
Note: nearly all actives have a fitted effect of over 55% in size.
Potency is the fitted concentration of half-maximal effect; tags give direction and shape of the fitted curve.

UniProt P43220, sequence (P43220 whole entry, looked up): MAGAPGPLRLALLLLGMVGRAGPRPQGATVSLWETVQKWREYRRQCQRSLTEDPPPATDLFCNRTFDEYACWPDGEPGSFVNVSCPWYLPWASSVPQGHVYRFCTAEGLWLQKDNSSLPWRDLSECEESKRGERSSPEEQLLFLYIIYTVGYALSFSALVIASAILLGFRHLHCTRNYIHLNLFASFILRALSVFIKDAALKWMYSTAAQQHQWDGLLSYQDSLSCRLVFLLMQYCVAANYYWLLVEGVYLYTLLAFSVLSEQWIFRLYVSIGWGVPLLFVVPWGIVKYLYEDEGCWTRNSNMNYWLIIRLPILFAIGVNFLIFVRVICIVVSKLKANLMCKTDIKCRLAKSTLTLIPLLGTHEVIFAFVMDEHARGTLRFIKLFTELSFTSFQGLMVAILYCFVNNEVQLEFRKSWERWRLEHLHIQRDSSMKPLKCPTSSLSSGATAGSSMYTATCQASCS

Structure (SMILES) | Potency
Cc1ccc([C@H]2C(C(=O)O)=CC[C@@H](c3ccc(C(C)C)cc3)N2S(=O)(=O)c2ccc(C)cc2)cc1 | inconclusive [inhibitor, partial curve, poor fit]
COc1ccc(CNC(=O)Cc2ccc(NC(=O)N3CCSc4ncccc43)cc2)cc1 | inactive
CN(Cc1ccccc1)C1(CNC(=O)CCC(F)(F)F)Cc2ccccc2C1 | inconclusive [inhibitor, partial curve, poor fit]
COc1ccc(-c2cc3nc(C)cc(N)n3n2)cc1 | active: 7.94 µM
Cc1cccc(OCCCC(=O)Nc2ccc(Br)cc2)c1 | inconclusive [inhibitor, partial curve, poor fit]
NC(=S)N=Nc1c(O)[nH]c2c(Br)cc(Br)cc12 | inconclusive [inhibitor, full curve, poor fit]
COc1ccc(S(=O)(=O)N2CCC(C(=O)NCCc3c[nH]c4ccccc34)CC2)cc1 | inconclusive [inhibitor, partial curve, poor fit]
COc1ccc(C(C)=O)cc1CN(C)C | inactive
COc1cc([N+](=O)[O-])c2ncsc2c1 | inactive
Cc1oc(C(C)(C)C)cc1C(=O)N1CCN(c2ncccc2C(F)(F)F)CC1 | inconclusive [inhibitor, partial curve, poor fit]
O=C(c1cc(-c2ccco2)nc2ccccc12)N1CCN(c2ccc(F)cc2)CC1 | inconclusive [inhibitor, single point]
O=C1c2ccccc2C(=O)N1S(=O)(=O)c1ccccc1 | inconclusive [inhibitor, single point]
COc1cc(CNc2ncnc3c2[nH]c2ccc(C)cc23)cc(OC)c1 | inconclusive [inhibitor, single point]
Cc1ccc(Cl)c(NC(=O)COC(=O)c2ccccc2C(=O)c2ccc(Cl)c([N+](=O)[O-])c2)c1Cl | inconclusive [inhibitor, single point]
CCOc1ccccc1N1CCN(C(=O)c2cc(-c3cc(OC)ccc3OC)nc3ccccc23)CC1 | inconclusive [inhibitor, single point]
O=C(CN1CCN(S(=O)(=O)c2cccc(Br)c2)CC1)N1CCCCC1 | inconclusive [inhibitor, partial curve, poor fit]
COc1c(Cl)cc(-c2noc(C)c2C(=O)NCCc2ccc(C)cc2)cc1Cl | inconclusive [inhibitor, single point]
Cc1ccc2c(C)c(C(=O)Nc3ccc(S(=O)(=O)Nc4onc(C)c4C)cc3)oc2c1 | inactive
CCn1c(=N)n(CC(=O)c2ccc(Br)s2)c2ccccc21 | inconclusive [inhibitor, single point]
CC(C)c1ccc2oc(-c3ccc(NC(=O)c4cccc(Br)c4)cc3)nc2c1 | inconclusive [inhibitor, partial curve, poor fit]
CC(C)(C)NCC(=O)c1c[nH]c2ccccc12 | inactive

Structure (SMILES) | Potency
CCC1CCCCN1C(=O)COc1c(Br)cc(Br)c2cccnc12 (stereo unspecified) | inconclusive [inhibitor, partial curve, poor fit]
Cc1cc(-n2c(=S)sc3c(=O)n(-c4ccc(F)cc4)c(SCC(=O)O)nc32)ccc1Cl | inconclusive [inhibitor, partial curve, poor fit]
CCc1c(C(=O)NNC(=S)NC2CCCCC2)csc1C | inconclusive [inhibitor, partial curve, poor fit]
COc1ccc(C)cc1NC(=O)CSc1nc(SC)ns1 | inconclusive [inhibitor, partial curve]
Cc1nc(SCC(=O)c2cccc([N+](=O)[O-])c2)n[nH]1 | inactive
COc1ccc2nc(SC(C(=O)c3ccccc3)c3ccccc3)nc(C)c2c1 (stereo unspecified) | inconclusive [inhibitor, single point]
CCc1ccc(CNCc2c(C(=O)O)n(Cc3ccc(C)cc3)c3cc(C)ccc23)cc1 | inconclusive [inhibitor, single point]
N/C(CSc1ccc(Cl)cc1)=N\S(=O)(=O)c1ccc(Cl)cc1 | inconclusive [inhibitor, partial curve, poor fit]
COc1cc(NC(=O)C(CC(C)C)NS(=O)(=O)c2ccc3c(c2)CCN3C(C)=O)cc(OC)c1 (stereo unspecified) | inactive
O=C(N/N=C1\CCc2ccccc21)c1ccccc1O | inconclusive [inhibitor, partial curve]
O=C(CCCc1ccccn1)c1ccccc1 | inconclusive [inhibitor, partial curve, poor fit]
O=C(CNS(=O)(=O)c1ccc(Br)cc1)N1CCN(c2ccc(F)cc2)CC1 | inconclusive [inhibitor, partial curve, poor fit]
CCOC(=O)N1CCC(NC(=O)C2CCN(C(=O)c3cc4oc(C)cc4n3Cc3c(F)cccc3Cl)CC2)CC1 | inconclusive [inhibitor, single point]
CC(=O)Nc1sc(N/N=C\c2ccccc2F)nc1-c1cccs1 | inconclusive [inhibitor, single point]
O=[N+]([O-])c1cc(S(=O)(=O)N2CCOCC2)ccc1OCc1cccc(Cl)c1 | inconclusive [inhibitor, full curve, poor fit]
Cc1onc(-c2ccccc2)c1-c1csc(COc2ccccc2)n1 | inconclusive [inhibitor, single point]
OC(c1ccc(F)c(F)c1)c1ncc(-c2ccc(Cl)cc2)[nH]1 (stereo unspecified) | inconclusive [inhibitor, single point]
O=C(Nc1ccc(S(=O)(=O)N2CCOCC2)cc1)C1CCN(S(=O)(=O)c2ccc(Cl)cc2)CC1 | inconclusive [inhibitor, single point]
O=S(=O)(c1ccc(Br)c2ccccc12)N1CCCC1 | inconclusive [inhibitor, partial curve, poor fit]
CCc1ccc(C2=NN(C(C)=O)C(c3ccco3)C2)cc1 (stereo unspecified) | inconclusive [inhibitor, single point]
Cc1ccccc1NC(=S)N/N=C/c1ccc(O)cc1O | inconclusive [inhibitor, single point]

Structure (SMILES) | Potency
COc1ccc(CNC(=O)c2ccc(NC(=O)N3CCSc4ccccc43)cc2)cc1 | inactive
COc1ccc(-c2cc(NC=O)c3ncc(-c4ccc(OC)c(OC)c4)n3c2)cc1OC | inconclusive [inhibitor, single point]
CSc1nn(Cc2cccc(C)c2)c(N)c1S(=O)(=O)c1ccccc1 | inconclusive [inhibitor, single point]
COc1ncnc2c1ncn2CCCN1CCN(Cc2cccc3ccccc23)CC1 | inconclusive [inhibitor, partial curve, poor fit]
CC1CCCCN1CCNC(=O)c1ccc2c(c1)N(Cc1cccc(Cl)c1)C(=O)c1ccccc1S2(=O)=O (stereo unspecified) | inconclusive [inhibitor, partial curve, poor fit]
O=C(NCc1ccccc1)c1ccc(C2SCC(=O)N2Cc2ccccc2)cc1 (stereo unspecified) | active: 10 µM
CCOC(=O)c1ccccc1NC(=O)COc1ccccc1-c1nnc(-c2ccccc2)o1 | inconclusive [inhibitor, single point]
C=CCNC(=O)c1c(N)n(-c2cccc(S(N)(=O)=O)c2)c2nc3ccccc3nc12 | inconclusive [inhibitor, partial curve, poor fit]
CCOc1ccc(N(C)S(=O)(=O)c2ccc(C)c(C(=O)NCc3ccccc3OC)c2)cc1 | inconclusive [inhibitor, partial curve, poor fit]
CC(C)(C)c1cc(C(=O)NC2CC2)n(Cc2ccc(F)cc2)n1 | inconclusive [inhibitor, partial curve, poor fit]
Cc1c(C(=O)N2CCN(c3ccccn3)CC2)sc2ncnc(N3CCN(c4ccccc4)CC3)c12 | inconclusive [inhibitor, partial curve, poor fit]
CC(NC(=O)CSc1nc2ccc(N)cc2s1)c1ccccc1 (stereo unspecified) | inconclusive [inhibitor, partial curve, poor fit]
Cc1nc2ccc(S(=O)(=O)N(C)CC(=O)NCc3ccc(N(C)C)cc3)cc2s1 | inconclusive [inhibitor, partial curve, poor fit]
O=C(Nc1nc2ccccc2[nH]1)c1ccc(Cl)c(S(=O)(=O)N2CCCC2)c1 | inconclusive [inhibitor, single point]
COC(=O)c1ccc(Oc2nc(Nc3ccc(F)cc3)nc(N3CCCC3)n2)cc1 | inactive
CC(C)n1nc(C(=O)OCC(=O)N(C)C2CCS(=O)(=O)C2)c2ccccc2c1=O (stereo unspecified) | inconclusive [inhibitor, single point]
Cc1ccccc1SC1CCN(Cc2nc(C3CC3)no2)CC1 | inconclusive [inhibitor, partial curve, poor fit]
Cc1c(Cl)cccc1NC(=S)NCCc1ccc(F)cc1 | inconclusive [inhibitor, single point]
CC1(C)C2CC=C(/C=N/NC(=S)NCCc3ccccc3)C1C2 (stereo unspecified) | inconclusive [inhibitor, partial curve, poor fit]
